# From publication PMC4336329 (PLoS ONE, 2015)
# Screen size: about 310,000 compounds; about 2,200 (0.71%) showed an effect of 50% or more. Effects have a minus sign here. This is one part of the list.
# Molecular target: human ether-à-go-go-related gene (hERG) potassium channel (human, UniProt Q12809)
# Experiment: primary screen, population patch clamp on CHO cells stably expressing hERG
# Chain of human ether-à-go-go-related gene (hERG) potassium channel (Q12809 whole entry, looked up): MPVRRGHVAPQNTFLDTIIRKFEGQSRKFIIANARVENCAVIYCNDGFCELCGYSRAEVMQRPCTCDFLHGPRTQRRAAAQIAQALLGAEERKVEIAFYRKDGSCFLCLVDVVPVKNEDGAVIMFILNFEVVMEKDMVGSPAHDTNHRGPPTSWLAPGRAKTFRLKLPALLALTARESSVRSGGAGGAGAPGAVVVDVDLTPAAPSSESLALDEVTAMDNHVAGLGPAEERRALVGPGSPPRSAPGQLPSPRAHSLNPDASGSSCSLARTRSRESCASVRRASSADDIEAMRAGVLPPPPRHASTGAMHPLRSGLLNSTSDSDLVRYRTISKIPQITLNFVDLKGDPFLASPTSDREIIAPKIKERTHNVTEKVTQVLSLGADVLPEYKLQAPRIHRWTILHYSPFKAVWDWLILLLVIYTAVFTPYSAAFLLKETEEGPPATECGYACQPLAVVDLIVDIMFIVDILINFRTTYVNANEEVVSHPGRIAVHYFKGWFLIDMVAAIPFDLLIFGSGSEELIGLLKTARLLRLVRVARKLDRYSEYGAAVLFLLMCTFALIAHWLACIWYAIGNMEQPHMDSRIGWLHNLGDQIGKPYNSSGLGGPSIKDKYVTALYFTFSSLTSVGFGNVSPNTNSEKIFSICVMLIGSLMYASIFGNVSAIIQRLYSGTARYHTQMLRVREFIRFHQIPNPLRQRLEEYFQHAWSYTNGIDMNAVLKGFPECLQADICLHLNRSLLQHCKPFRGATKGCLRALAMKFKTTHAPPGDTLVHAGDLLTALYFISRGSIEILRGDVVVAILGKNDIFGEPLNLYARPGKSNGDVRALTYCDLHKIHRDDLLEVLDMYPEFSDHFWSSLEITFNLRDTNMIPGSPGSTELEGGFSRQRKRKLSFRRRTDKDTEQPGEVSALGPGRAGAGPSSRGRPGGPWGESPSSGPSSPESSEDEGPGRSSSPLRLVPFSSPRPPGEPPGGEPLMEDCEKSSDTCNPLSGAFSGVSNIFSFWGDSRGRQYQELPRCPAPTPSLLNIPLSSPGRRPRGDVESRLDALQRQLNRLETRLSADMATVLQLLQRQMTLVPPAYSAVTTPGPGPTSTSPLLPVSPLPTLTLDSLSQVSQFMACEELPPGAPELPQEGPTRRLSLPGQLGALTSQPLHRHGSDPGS
row,Compound,"hERG current change (%, negative = inhibition) at 1uM [%]"
1,O=C(Nc1ccc(NC(=O)c2ccc([N+](=O)[O-])o2)cc1Cl)c1ccco1,14.3
2,Cc1ccc2cccc(S(=O)(=O)N3CCCc4ccccc43)c2n1,6.59
3,COc1ccc(CNC(=O)[C@H](Cc2c[nH]c3ccccc23)NC(C)=O)cc1OC,9
4,Cc1c([N+](=O)[O-])c(C(=O)NC2CCCCC2)nn1C,-10
5,O=C(Nc1nnc(C2=COCCO2)o1)c1ccc(Cl)cc1,15.1
6,COc1ccc(-c2nnc(NC(=O)c3ccc(S(=O)(=O)N4COCC4(C)C)cc3)o2)cc1,9.3
7,O=Nc1ccc(NOC(=O)c2ccccc2)cc1,8.09
8,O=C1NC(NS(=O)(=O)c2ccccc2)(C(F)(F)F)C(=O)N1Cc1ccccc1 (stereo not shown),13.4
9,O=C(NCC1CCCO1)c1cc2n(n1)C(C(F)(F)F)CC(c1ccc(Br)cc1)N2 (stereo not shown),-2.6
10,O=C(NCc1cccnc1)C1CCN(S(=O)(=O)c2cc(Cl)ccc2Cl)CC1,7.78
11,COc1cc(NC(=S)NCc2ccco2)c(OC)cc1Cl,4.35
12,COc1ccc(Cn2cnc([N+](=O)[O-])c2)cc1[N+](=O)[O-],9.64
13,O=C(CCNS(=O)(=O)c1cccc2nsnc12)N1CCc2ccccc21,2.51
14,CC1CN(CC(O)COc2ccc(C(=O)c3ccccc3)cc2)CC(C)O1 (stereo not shown),-4.77
15,Cc1csc(CNC(=O)C2CCC(=O)N(CCCc3ccccc3)C2)n1 (stereo not shown),4.75
16,NC(=O)[C@H]1CC2(CC(c3cccc(NC(=O)CC(c4ccccc4)c4ccccc4)c3)=NO2)CN1C(=O)C(c1ccccc1)c1ccccc1 (stereo partly shown),11.8
17,CCn1c(SCC(=O)NCc2ccc(C)cc2)nnc1-c1ccncc1,4.07
18,Cn1c(SCC(=O)Nc2ccc(Cl)cc2)nc(O)cc1=O,8.26
19,O=C(NCc1cccs1)C1CCCN(c2nc3ccccc3o2)C1 (stereo not shown),-30.9
20,N#Cc1nc(-c2ccco2)oc1N1CCN(Cc2ccccc2)CC1,10.5
21,CCOc1ccc(NS(=O)(=O)c2ccc(NS(=O)(=O)c3ccccc3)cc2)cc1,3.84
22,Cc1cccc(NC(=O)c2ccc3nccnc3c2)n1,-9.66
23,Cc1ccnc(NC(=O)c2ccc3c(c2)S(=O)(=O)c2ccccc2C3=O)c1,-0.34
24,C=CCSC1=C(C#N)C(c2ccc(OCC)cc2)CC(=O)N1 (stereo not shown),6.87
25,O=C(C[n+]1cccc(C(=O)N/N=C/c2ccc(Br)cc2)c1)c1ccccc1,-14.6
26,COc1cc(Nc2ccccc2Cl)c([N+](=O)[O-])nc1[N+](=O)[O-],7.85
27,O=C(Nc1ccc(S(=O)(=O)N2CCCCC2)cc1)C1CCN(C(=O)c2ccc(F)cc2)CC1,8.12
28,CCOC(=O)CSc1nnc(CNC(=O)c2ccc(OC)cc2)n1-c1ccc(OC)cc1,1.6

row,Compound,"hERG current change (%, negative = inhibition) at 1uM [%]"
1,C/C(=N\NC(N)=O)C1CC(Cc2ccccc2)C(=O)O1 (stereo not shown),9.05
2,COc1c(C(=O)Nc2ccc(Cc3ccncc3)cc2)ccc2ccccc12,3.83
3,O=C(CCc1ccc(O)c(O)c1)N/N=C/c1cc2c(cc1[N+](=O)[O-])OCO2,15.2
4,Cc1cccc(NC(=O)Nc2ccc(S(=O)(=O)Nc3onc(C)c3C)cc2)c1,12.7
5,COc1ccccc1N1CCN(C2CCN(S(=O)(=O)c3ccc(C)cc3)CC2)CC1,-5.86
6,CCCc1ccc(-c2cc(NC(=O)CSc3n[nH]c(N)n3)n(-c3ccccc3)n2)cc1,7.98
7,O=S(=O)(Nc1cccc(-c2nc3cccnc3s2)c1)c1ccc2c(c1)OCCO2,12.6
8,Cc1ncc([N+](=O)[O-])n1CC(=O)Nc1ccc(Cl)cc1,11.9
9,COc1cc(CNc2ccc(S(N)(=O)=O)cc2)ccc1OCC(=O)NC1CCCCC1,17.3
10,Cc1ccc(S(=O)(=O)c2nc(C)oc2NCc2ccccc2)cc1,17.4
11,C=CCNC(=O)COc1ccc(S(=O)(=O)NC2CCCCC2)cc1,14
12,O=C(COC(=O)Cc1c(F)cccc1Cl)NCCC1=CCCCC1,7.46
13,O=C(CCCCCNC(=O)N1CCn2c1nc1ccccc12)NCc1ccccc1,6.25
14,Cc1cccc(N2C(=O)c3cccnc3C2=O)c1,12.8
15,O=C(Cn1nc(-c2ccc(Cl)cc2)ccc1=O)NCC1COCCO1 (stereo not shown),3.16
16,COc1ccc(O)c(C=Nc2cc(C)on2)c1,-0.0913
17,O=S(=O)(c1cccs1)N1CCc2ccccc2C1,1.45
18,CCc1ccc(OCC(=O)Nc2cccc3nsnc23)cc1,5.64
19,COC(=O)Nc1ccc(OC)c(OC)c1,6.82
20,CCCCNC(=O)CSc1nc(COc2ccccc2)nc2ccccc12,17.6
21,CC1=Nc2cc(C(=O)NCC3CCCO3)ccc2Sc2ccc(Br)cc21 (stereo not shown),9.48
22,COC(Cc1nnc(SC)n1-c1ccc(Cl)cc1)OC,7.31
23,CCCCc1ccc(NC(=O)N[C@H](C(=O)O)C(C)CC)cc1 (stereo partly shown),-0.822
24,O=C(/C=C\c1ccc2c(c1)OCO2)Nc1nnc(SCC(=O)OCc2ccccc2)s1,7.47
25,O=C(CCC(=O)NNC(=O)COc1ccc(Br)cc1)NCc1ccccc1,20.4
26,CC(CCc1ccc(O)cc1)NC1c2ccccc2-c2ccccc21 (stereo not shown),9.7
27,CC(C)(C)c1nc2c(C#N)c(-c3ccc(Cl)cc3)ccn2n1,1.66
